Reference: US9663496B2, “AMPK-activating heterocyclic compounds and methods for using the same” (Rigel Pharmaceuticals, Inc., priority 2010, dated 2017)
At least one structure is not confirmed: it was looked up by name or label, or the drawing left a doubt.

Molecular target: AMPK
Assay: AMPK activation, enzyme-linked immunosorbent assay
Type: biochemical
Details: EC50 for AMPK activation, ELISA
Description: Compounds were assayed for their ability to activate AMPK using an enzyme-linked immunosorbent assay. Reagents and procedures for measuring AMPK activation are well known and kits for AMPK activation assays are commercially available.

O=C(Nc1ccc(-c2ccsc2)cc1)c1ccc(C(=O)N2CCN(Cc3ccc(F)cc3)CC2)cn1 [Compound 62, 5-(4-(4-fluorobenzyl)piperazine-1-carbonyl)-N-(4-(thiophen-3-yl)phenyl)picolinamide]
EC50: < 500 nM

N#Cc1ccc(CN2CCC(Nc3ccc(C(=O)N4CCN(Cc5ccc(F)cc5)CC4)cn3)CC2)cc1 [Compound 36, (6-(4-(cyanobenzyl)piperidin-4-ylamino)pyridin-3-yl)(4-(4-fluorobenzyl)piperazin-1-yl)methanone]
EC50: 500 to 1000 nM

N#Cc1ccc(OC2CCN(C(=O)c3ccc(C(=O)NC4CCN(Cc5ccc(OC(F)(F)F)cc5)CC4)cn3)CC2)cc1 [Compound 338, 6-(4-(4-cyanophenoxy)piperidine-1-carbonyl)-N-(1-(4-(trifluoromethoxy)benzyl)piperidin-4-yl)nicotinamide]
EC50: < 500 nM

COc1ccc(C(=O)C2CCN(C(=O)c3ccc(C(=O)NC4CCN(Cc5cc(F)cc(F)c5)CC4)cn3)CC2)cc1 [Compound 310]
EC50: < 500 nM

O=C(Nc1ccc(N2CCOCC2)cc1)c1ccc(C(=O)N2CCN(Cc3ccc(F)cc3)CC2)cn1 [Compound 40, 5-(4-(4-fluorobenzyl)piperazine-1-carbonyl)-N-(4-morpholinophenyl)picolinamide]
EC50: 1000 to 5000 nM

N#Cc1ccc(CN2CCC(NC(=O)c3ccc(C(=O)N4CCC(F)(C(=O)c5ccc(F)cc5)CC4)cn3)CC2)cc1 [Compound 68, N-(1-(4-cyanobenzyl)piperidin-4-yl)-5-(4-(4-fluoro-4-fluorobenzoyl)piperidine-1-carbonyl)picolinamide]
EC50: < 500 nM

O=C(NC1CCN(Cc2cc(F)cc(F)c2)CC1)c1ccc(C(=O)N2CCC(Oc3ccc(F)cc3)CC2)cn1 [Compound 295, N-(1-(3,5-difluorobenzyl)piperidin-4-yl)-5-(4-(4-fluorophenoxy)piperidine-1-carbonyl)picolinamide]
EC50: < 500 nM

N#Cc1cccc(Oc2ccc(NC(=O)c3ccc(C(=O)N4CCN(Cc5ccc(F)cc5)CC4)cn3)cc2)c1 [Compound 56, N-(4-(3-cyanophenoxy)phenyl)-5-(4-(4-fluorobenzyl)piperazine-1-carbonyl)picolinamide]
EC50: < 500 nM

O=C(NC1CCN(Cc2cc(F)cc(F)c2)CC1)c1ccc(C(=O)N2CCN(Cc3ccc(F)cc3)CC2)cn1 [Compound 49, N-(1-(3,5-difluorobenzyl)piperidin-4-yl)-5-(4-(4-fluorobenzyl)piperazine-1-carbonyl)picolinamide]
EC50: < 500 nM

Cc1cccc(Oc2ccc(NC(=O)c3ccc(C(=O)N4CCN(Cc5ccc(F)cc5)CC4)cn3)cc2)c1 [Compound 58, 5-(4-(4-fluorobenzyl)piperazine-1-carbonyl)-N-(4-(3-methylphenoxy)phenyl)picolinamide]
EC50: < 500 nM

O=C(NC1CCN(c2ccccc2)CC1)c1ccc(C(=O)N2CCN(Cc3ccc(F)cc3)CC2)cn1 [Compound 14, 5-(4-(4-fluorobenzyl)piperazine-1-carbonyl)-N-(1-(phenyl)piperidin-4-yl)picolinamide]
EC50: 500 to 1000 nM

N#Cc1ccc(CNC(=O)c2ccc(-c3ccc(C(=O)N4CCN(Cc5ccc(F)cc5)CC4)cn3)cc2)cc1 [Compound 35, (6-(4-(4-cyanobenzylcarbamoyl)phenyl)pyridin-3-yl)(4-(4-fluorobenzyl)piperazin-1-yl)methanone]
EC50: 500 to 1000 nM

N#Cc1ccc(CNC(=O)c2ccc(Nc3ccc(C(=O)N4CCN(Cc5ccc(F)cc5)CC4)cn3)cc2)cc1 [Compound 48, (6-(4-(4-cyanobenzylcarbamoyl)phenylamino)pyridin-3-yl)(4-(4-fluorobenzyl)piperazin-1-yl)methanone]
EC50: 500 to 1000 nM

O=C(Nc1ccc(-c2cc[nH]c2)cc1)c1ccc(C(=O)N2CCN(Cc3ccc(F)cc3)CC2)cn1 [Compound 39, 5-(4-(4-fluorobenzyl)piperazine-1-carbonyl)-N-(4-(1H-pyrrol-3-yl)phenyl)picolinamide]
EC50: 1000 to 5000 nM

N#Cc1ccc(CN2CCC(NC(=O)c3ccc(C(=O)N4CCCC(Cc5ccc(F)cc5)C4)cn3)CC2)cc1 (centres unmarked) [Compound 152, N-(1-(4-cyanobenzyl)piperidin-4-yl)-5-(3-(4-fluorobenzyl)piperidine-1-carbonyl)picolinamide]
EC50: < 500 nM

N#Cc1ccc(Cn2cc(NC(=O)c3ccc(C(=O)N4CCN(Cc5ccc(F)cc5)CC4)cn3)cn2)cc1 [Compound 23, N-(1-(4-cyanobenzyl)-1H-pyrazol-4-yl)-5-(4-(4-fluorobenzyl)piperazine-1-carbonyl)picolinamide]
EC50: < 500 nM

O=C(c1ccc(-c2cccc(OCc3ccccc3)c2)nc1)N1CCN(Cc2ccc(F)cc2)CC1 [Compound 22, (6-(3-(benzyloxy)phenyl)pyridin-3-yl)(4-(4-fluorobenzyl)piperazin-1-yl)methanone]
EC50: < 500 nM

O=C(Nc1ccc(-c2ccc(C(F)(F)F)cc2)cc1)c1ccc(C(=O)N2CCN(Cc3ccc(F)cc3)CC2)cn1 [Compound 25, 5-(4-(4-fluorobenzyl)piperazine-1-carbonyl)-N-(4-(4-trifluoromethylphenyl)phenyl)picolinamide]
EC50: < 500 nM

CC(c1ccccc1)N1CCC(NC(=O)c2ccc(C(=O)N3CCN(Cc4ccc(F)cc4)CC3)cn2)CC1 (centres unmarked) [Compound 18, 5-(4-(4-fluorobenzyl)piperazine-1-carbonyl)-N-(1-(1-phenylethyl)piperidin-4-yl)picolinamide]
EC50: < 500 nM

COc1ccc(C(=O)C2CCN(C(=O)c3ccc(C(=O)NC4CCN(Cc5ccc(OC(F)(F)F)cc5)CC4)cn3)CC2)cc1 [Compound 430, 6-(4-(4-methoxybenzoyl)piperidine-1-carbonyl)-N-(1-(4-(trifluoromethoxy)benzyl)piperidin-4-yl)nicotinamide]
EC50: < 500 nM

COc1ccc(CN2CCC(NC(=O)c3ccc(C(=O)N4CCC(Oc5ccc(C#N)cc5)CC4)cn3)CC2)cc1 [Compound 162, 5-(4-(4-cyanophenoxy)piperidine-1-carbonyl)-N-(1-(4-methoxybenzyl)piperidin-4-yl)picolinamide]
EC50: < 500 nM

N#Cc1ccc(CN2CCC(NC(=O)c3ccc(C(=O)N4CCN(Cc5cc(F)cc(F)c5)CC4)cn3)CC2)cc1 [Compound 140, N-(1-(4-cyanobenzyl)piperidin-4-yl)-5-(4-(3,5-difluorobenzyl)piperazine-1-carbonyl)picolinamide]
EC50: < 500 nM

Cc1ccc(Oc2ccc(NC(=O)c3ccc(C(=O)N4CCN(Cc5ccc(F)cc5)CC4)cn3)cc2)cc1 [Compound 53, 5-(4-(4-fluorobenzyl)piperazine-1-carbonyl)-N-(4-(4-methylphenoxy)phenyl)picolinamide]
EC50: < 500 nM

N#Cc1ccc(CN2CCC(NC(=O)c3ccc(C(=O)N4CCNCC4)cn3)CC2)cc1 [Compound 2, N-(1-(4-cyanobenzyl)piperidin-4-yl)-5-(piperazine-1-carbonyl)picolinamide]
EC50: > 10000 nM

O=C(Nc1ccc(Oc2ccc(F)cc2)nc1)c1ccc(C(=O)N2CCC(F)(C(=O)c3ccc(F)cc3)CC2)cn1 [Compound 67, 5-(4-(4-fluoro-4-fluorobenzoyl)piperidine-1-carbonyl)-N-(6-(4-fluorophenoxy)pyridin-3-yl)picolinamide]
EC50: < 500 nM

CC(=O)c1ccc(OC2CCN(C(=O)c3ccc(C(=O)NC4CCN(Cc5ccc(C#N)cc5)CC4)nn3)CC2)cc1 [Compound 437, 6-(4-(4-acetylphenoxy)piperidine-1-carbonyl)-N-(1-(4-cyanobenzyl)piperidin-4-yl)pyridazine-3-carboxamide]
EC50: < 500 nM

Cc1cc(CN2CCC(NC(=O)c3ccc(C(=O)N4CCN(Cc5ccc(F)cc5)CC4)cn3)CC2)ccc1F [Compound 50, 5-(4-(4-fluorobenzyl)piperazine-1-carbonyl)-N-(1-(4-fluoro-3-methylbenzyl)piperidin-4-yl)picolinamide]
EC50: < 500 nM

O=C(Nc1ccc(Oc2cccc(F)c2)cc1)c1ccc(C(=O)N2CCN(Cc3ccc(F)cc3)CC2)cn1 [Compound 55, 5-(4-(4-fluorobenzyl)piperazine-1-carbonyl)-N-(4-(3-fluorophenoxy)phenyl)picolinamide]
EC50: < 500 nM

COc1ccc(OC2CCN(C(=O)c3ccc(C(=O)Nc4ccc(Oc5ccc(F)cc5)nc4)nc3)CC2)cc1 [Compound 70, 5-(4-(4-methoxyphenoxy)piperidine-1-carbonyl)-N-(6-(4-fluorophenoxy)pyridin-3-yl)picolinamide]
EC50: < 500 nM

N#Cc1ccc(Oc2ccc(NC(=O)c3ccc(C(=O)N4CCN(Cc5ccc(F)cc5)CC4)cn3)cn2)cc1 [Compound 63, 5-(4-(4-fluorobenzyl)piperazine-1-carbonyl)-(6-(4-cyanophenoxy)pyridin-3-yl)picolinamide]
EC50: < 500 nM

O=C(Nc1ccc(OCc2ccccc2)cc1)c1ccc(C(=O)N2CCN(Cc3ccc(F)cc3)CC2)cn1 [Compound 27, N-(4-benzyloxyphenyl)-5-(4-(4-fluorobenzyl)piperazine-1-carbonyl)picolinamide]
EC50: 500 to 1000 nM

COc1ccc(C(=O)C2CCN(C(=O)c3ccc(C(=O)N[C@@H]4CCN(Cc5ccc(OC(F)(F)F)cc5)C[C@@H]4F)cn3)CC2)cc1 (relative stereo) [Compound 461, N-((cis)-3-fluoro-1-(4-(trifluoromethoxy)benzyl)piperidin-4-yl)-6-(4-(4-methoxybenzoyl)piperidine-1-carbonyl)nicotinamide]
EC50: < 500 nM

O=C(c1ccccc1)c1ccc(NC(=O)c2ccc(C(=O)N3CCN(Cc4ccc(F)cc4)CC3)cn2)cc1 [Compound 26, N-(4-benzoylphenyl)-5-(4-(4-fluorobenzyl)piperazine-1-carbonyl)picolinamide]
EC50: < 500 nM

N#Cc1ccc(CNC(=O)c2ccc(NC(=O)c3ccc(C(=O)N4CCN(Cc5ccc(F)cc5)CC4)cn3)cc2)cc1 [Compound 47, N-(4-(4-cyanobenzylcarbamoyl)phenyl)-5-(4-(4-fluorobenzyl)piperazine-1-carbonyl)picolinamide]
EC50: < 500 nM

N#Cc1cccc(Oc2ccc(NC(=O)c3ccc(C(=O)N4CCN(Cc5ccc(F)cc5)CC4)cn3)cn2)c1 [Compound 64, 5-(4-(4-fluorobenzyl)piperazine-1-carbonyl)-(6-(3-cyanophenoxy)pyridin-3-yl)picolinamide]
EC50: < 500 nM
